Laboratory results from PubChem BioAssay AID485297 (National Center for Advancing Translational Sciences (NCATS), 2010).
The campaign covered roughly 320,000 compounds. About 9,100 (2.8%) were called active. Inconclusive results, whose numbers are uncertain, are shown with a selection of clear calls. Calls follow the shape of the dose curve; as a rule, active = well fitted activation curve with a large enough effect; inconclusive = small, poorly fitted or top-dose-only effect; inactive = no such curve, though single readings can be large or run the other way. A potency beside an inconclusive call is a rough fit, not a confirmed value.

Assay: qHTS Assay for Rab9 Promoter Activators; also: nearly all actives have a fitted effect of over 60% in size; as to activation, negative = inhibition: % of control where 0% means no effect
Conditions: Huh7 Rab9 promoter-luciferase reporter, luminescence, 24 h; series mostly up to 9.22 µM; activation, negative = inhibition: at the top concentration
Description: NIH Chemical Genomics Center [NCGC] NIH Molecular Libraries Probe Production centers Network [MLPCN] MLPCN Grant: MH089537-01 Assay Submitter (PI): Yiannis A. Ioannou NCGC Assay Overview: Niemann Pick Type C (NPC) is a rare neurodegenerative lipidosis that is characterized by lipid storage in the endosomal/lysosomal system. Treatment modalities for this devastating disease are currently non-existent due to the severe obstacles associated with accessing the central nervous system with proteins or genes (Ioannou, 2000). We have developed a new paradigm, termed "Orphan Receptor Bypass Therapy" (ORByT), to address these disorders. This paradigm posits the existence of endogenous "suppressor" proteins whose expression can dramatically improve LSD pathogenesis. The goal is the identification/discovery of small chemical compounds that can modulate the expression of these proteins and provide a new treatment modality for these devastating disorders. One such protein whose overexpression reverses aspects of the NPC phenotype is Rab9. We have developed and optimized a cell based luciferase reporter assay in 1536 well format for the identification of up-regulators of the Rab9 promoter.
The Rab9 promoter is cloned in front of the luciferase reporter gene, therefore […] promoter activation results in luciferase expression. Frozen stock of the Rab9 promoter transfected Huh7 cells were obtained from the laboratory of Dr. Yiannis Ioannou (The Mount Sinai School of Medicine, New York, NY). Cells were propagated and maintained at NCGC in medium containing RPMI-1640 supplemented with 10% FBS, 2mM L-glutamine, and 50ug/ml penicillin/streptomycin. Cells were harvested in and plated for assays in OP-MEM I reduced-serum medium supplemented with 10% FBS. The Amplite luciferase reporter gene assay kit was purchased from ABD Bioquest and prepared/stored according to manufacturers recommendations. qHTS Assay Setup: 1.Dispensed 5ul of Huh7 cells stably expressing Rab9-luciferase at a density of 1500 cells per well 1536-well plates. 2.Incubate cells at 37C, 5% CO2, and 95% humidity for 2 hours. 3.Transferred 23nl per well of compound in DMSO solution. 4.Incubated at 37C, 5% CO2, and 95% humidity for 24 hours. 5.Dispensed 3ul per well of Amplite reagent(ABD Bioquest) per well. 6.Incubate at ambient for 10 minutes. 7.Read using the luminescence protocol on the ViewLux plate reader (Perkin Elmer).
Potency is read from the fitted curve at half-maximal effect; tags tell the direction and shape of the fitted curve.

activation, negative = inhibition, inactive:
CC(C)(C)OC(=O)N1CCN(CCNC(=O)c2ccccc2)CC1 -2.22%
O=C(CN1CCC(NC(=O)Nc2ccccc2)CC1)Nc1ccc([N+](=O)[O-])cc1 -1.85%
Cc1cccc(-n2nc(C(=O)c3ccco3)cc(-c3nc4ccccc4[nH]3)c2=N)c1 -4.81%
CCOc1cc(/C=C2\SC(=S)N(NC(=O)c3cccnc3)C2=O)ccc1O -1.96%
Cc1cccc(NC(=S)N2CCN(c3ccccc3F)CC2)c1C 4.25%
N#C/C(=N/Nc1ccc(OC(F)(F)F)cc1)C(N)=S -35.8%
COc1ccc(NC(=O)c2cc3ccccc3cc2OC)cc1OC 13.4%
O=C(c1cc2ccccc2oc1=O)N(c1ccc(Cl)cc1)C1C=CS(=O)(=O)C1 (stereo not given) -3.79%
CCCOc1ccc(C(=O)CCC(=O)NNC(=O)c2cccs2)cc1 -1.06%
O=C(CCC(=O)c1ccccc1)NCc1cccc(C(F)(F)F)c1 3.01%
Cn1c(/N=C/c2cccs2)nc2ccccc21 -7.8%
CCN(c1cccc(C)c1)S(=O)(=O)c1cc2c3c(c1)CCN3C(=O)CC2 -2.2%
Cc1ccc2[nH]c(=O)c(-c3nc4cc(C)ccn4c3NCc3ccco3)cc2c1 2.69%
CCNC(=O)NC(=O)CSc1nnc(-c2c[nH]c3ccccc23)o1 2.57%
Cc1ccc2[nH]c(C(=O)N/N=C/c3ccccc3C(=O)O)c(-c3ccccc3)c2c1 -10.5%

Potency, inconclusive:
C/C(CC(=O)Nc1cc(C)ccn1)=N\NC(=O)C(=O)Nc1cccc(C)c1 1.41 µM [activator, partial curve]
COc1ccc(-n2c(Cc3cc(=O)[nH]c(=O)[nH]3)nnc2SCC(=O)N2CCCC2)cc1 3.98 µM [activator, single point]
CN(CC(=O)N1CCCCCC1)S(=O)(=O)c1ccc(F)cc1 3.16 µM [activator, single point]
COc1c(Cl)cc(C(=O)Nc2ccc(Cl)cn2)cc1Cl 1.12 µM [activator, partial curve, poor fit]
COc1ccc(NC(=O)c2ccc(C)cc2Cl)c([N+](=O)[O-])c1 5.01 µM [activator, single point]
O=C(Nc1ccc(Cl)cn1)c1cc2c(s1)-c1ccccc1OC2 3.16 µM [activator, single point]
O=C(Nc1nc2ccccc2[nH]1)Nc1ccccc1F 5.62 µM [activator, single point]
CCOc1ccc(CCNC(=O)Cc2ccc(NC(=O)C3=C(C)OCCS3)cc2)cc1 3.55 µM [activator, partial curve]
COc1ccc(-c2cn3ccc4ccccc4c3n2)cc1 3.98 µM [activator, single point]
C/C(=N\NC(=O)c1ccc(O)cc1)c1cc2ccccc2o1 5.62 µM [activator, single point]
CCOC(=O)/C=C/c1cnn(-c2ccccc2)c1 3.16 µM [activator, partial curve]
Cc1ccc(NC(=O)Cc2cccs2)cc1Cl 4.47 µM [activator, single point]
CCCCN1CC(O)=C(c2nc3ccccc3[nH]2)C1=N 2.82 µM [activator, partial curve]
COc1ccccc1NC(=O)NC(=O)c1ccccc1 2.51 µM [activator, single point]
CCCC(=O)N1CCN(c2nc3ccc(Br)cc3s2)CC1 3.55 µM [activator, partial curve]
O=C(Nc1ccncc1)c1sc2ccccc2c1Cl 2 µM [activator, partial curve]
CCOC(=O)C1(Cc2ccccc2C(F)(F)F)CCN(C(=O)c2cc(C)n(C)n2)CC1 3.55 µM [activator, single point]
CNc1nc(-c2ccc3c(c2)CCN3C(=O)c2ccc(F)cc2)cs1 3.55 µM [activator, partial curve]
Cc1ccc(NC(=S)N2CCC(c3ccc(C)cc3)C2)cc1 (stereo not given) 6.31 µM [activator, single point]
Cc1nc2ccc(NC(=O)N3CCCCC3)cc2nc1C 1.12 µM [activator, partial curve]
c1ccc(Nc2ccnc(Nc3ccccc3)n2)cc1 2 µM [activator, partial curve]
O=C1CC(Cc2ccccc2)C(=O)N1c1ncccn1 (stereo not given) 1.58 µM [activator, partial curve]
Cc1noc(C)c1C(=O)Nc1nc2ccc(S(C)(=O)=O)cc2s1 2.82 µM [activator, partial curve]
CC(=O)c1cccc(NC(=O)c2ccc3c(c2)OCO3)c1 3.55 µM [activator, partial curve]
COCCCNC(=O)c1ccc(-c2csc(C)n2)cc1 5.62 µM [activator, single point]
CCOc1ccc(/C=C2\SC(=S)N(CCC(=O)Nc3ccccc3C(=O)O)C2=O)cc1 3.16 µM [activator, single point]
Cc1cc(NC(=O)c2cccc(Br)c2)n[nH]1 3.16 µM [activator, partial curve]
COc1ccc2[nH]cc(CCNC(C)=O)c2c1 14.1 µM [activator, single point]
CCC(CC)c1nnc(NC(=O)c2ccc3ccccc3n2)s1 5.62 µM [activator, single point]
Cc1nc(N)sc1N=Nc1c(C)n(C)n(-c2ccccc2)c1=O 0.794 µM [activator, single point]
CCCOc1ccc(/C=N/NC(=O)c2ccc(Cn3cc([N+](=O)[O-])cn3)o2)cc1 3.55 µM [activator, single point]
O=C(Cn1c(-c2ccccc2)c[n+]2ccsc12)c1ccc([N+](=O)[O-])cc1 0.708 µM [activator, full curve, poor fit]
CC(C)C[C@@H](CSc1ccc(Br)cc1)N1CCN(C)CCC1=O 3.16 µM [activator, single point]
CC1CC(C)CN(C(=O)c2cc3ccccc3o2)C1 (stereo not given) 1.12 µM [activator, partial curve, poor fit]
O=Nc1c(-c2c(O)[nH]c3ccccc23)[nH]c2ccccc12 3.98 µM [activator, partial curve]
COc1ccc(NC2=NC(C)(CO)CS2)cc1 (stereo not given) 5.62 µM [activator, single point]
c1ccc2c(c1)Cc1cc(CN3CCOCC3)ccc1-2 2 µM [activator, partial curve]
O=C(CCNC(=O)c1ccco1)Nc1nc2ccccc2s1 6.31 µM [activator, single point]
O=C(Oc1oc(-c2ccco2)nc1C=Nc1ccc(Cl)cc1)c1ccco1 3.55 µM [activator, partial curve]
O=C(/C(=C/c1ccc(Cl)cc1)c1nc2ccccc2[nH]1)c1ccccc1 3.16 µM [activator, partial curve]
c1ccc(CSc2nnc(Cc3ccccn3)o2)cc1 3.16 µM [activator, partial curve]
CC(C)OC(=O)c1ccc(NC(=O)c2ccccc2)cc1 0.891 µM [activator, full curve]
CC(C)c1onc(C(=O)Nc2cccc(Cl)c2)c1[N+](=O)[O-] 5.62 µM [activator, single point]
S=c1[nH]c(-c2cccs2)cn1-c1ccccc1 3.16 µM [activator, partial curve]
COc1ccc2nc(/N=C/c3cccc(OC)c3O)sc2c1 5.62 µM [activator, single point]
Cc1cccc(N/N=C/c2ccc(C)s2)c1 2 µM [activator, partial curve]

Potency, active:
CC(=O)n1nc(-c2ccc(Cl)cc2)nc1NCc1ccco1 2.82 µM
N#Cc1c(/N=C/c2ccc(-c3ccccc3C(=O)O)o2)sc2c1CCCC2 0.708 µM
Cc1ccccc1-c1nc2cc(N)ccc2o1 0.355 µM
CCOC(=O)c1sc(=NC(=O)c2cccc(C)c2)n(C)c1C 2 µM
COC(=O)c1sc2nc3c(cc2c1N)COC(C)(C)C3 3.55 µM
O=C(c1ccc(-c2cccc(Cl)c2Cl)o1)N1CCOCC1 1.26 µM
Cc1cc(/C=N/Nc2nc(N)ncc2[N+](=O)[O-])c(C)n1-c1cccc(C(F)(F)F)c1 0.447 µM
COc1ccc(/C=C/C(=O)Nc2cccnc2Cl)cc1 2.51 µM
CCOC(=O)c1cccc(NC(=O)/C=C/c2ccc3c(c2)OCO3)c1 0.316 µM
Cc1cccc(Nc2n[nH]c(C)c2[N+](=O)[O-])c1 3.16 µM
Cc1cc(C(=O)Nc2ccc(Br)cc2)cs1 0.631 µM
CCCn1nnc(NC(=O)c2ccc3c(c2)OCO3)n1 1.58 µM
Cc1cccc2c3nc4ccccc4nc3n(C)c12 4.47 µM
CC(C)(C)C1CCC(=O)N(CCSc2ccccc2)CC1 (stereo not given) 3.16 µM
